PubChem BioAssay AID624296 (National Center for Advancing Translational Sciences (NCATS), 2012)
Hit rate of the full screen: of about 350,000 compounds, about 9,900 (2.8%) were called active. Inconclusive results, whose numbers are uncertain, are shown with a selection of clear calls. The call rests on the fitted dose curve; in most records, active means well fitted activation curve with a large enough effect; inconclusive means small, poorly fitted or top-dose-only effect; inactive means no such curve, though single readings can be large or run the other way. No potency is given beside an inconclusive call; the fits are too rough.

Assay: A quantitative high throughput screen for small molecules that induce DNA re-replication in MCF 10a normal breast cells. Further: nearly all actives have a fitted effect of over 50% in size. On activity, positive = re-replication: % of control where 0% means no effect.
Conditions: MCF 10A DNA re-replication, Hoechst nuclear intensity, 48 h; activity, positive = re-replication: at 46.1 µM (top of the series)
Potency means the concentration at half of the fitted maximal effect; tags describe the fitted curve by direction and shape.

Compound | Potency | activity, positive = re-replication
COc1ccc(/C=C2\CCc3ccccc3C2=O)cc1CN1CCOCC1 | inconclusive [activator, single point] | 
Cc1ccc(-c2cc(C(=O)NCCCN3CCOCC3)c3ccc(Cl)c(C)c3n2)cc1 | inconclusive [activator, single point] | 
O=C(Nc1ccc(-c2ccccc2)cc1)c1ccccc1 | inconclusive [activator, partial curve, poor fit] | 
OCC1(Cc2ccc(F)cc2)CCCN(CCc2ccccc2)C1 (stereo unspecified) | inconclusive [activator, partial curve, poor fit] | 
Cc1cc(C(=O)COC(=O)CCC(=O)c2ccc3c(c2)OCCO3)c(C)n1Cc1ccco1 | inconclusive [activator, single point] | 
COC(=O)c1c(NC(=O)CCCC(=O)O)sc2c1CCCCC2 |  | inactive: -2.78%
COCCn1c(-c2ccc(-c3ccc([N+](=O)[O-])cc3Br)o2)nc2c1c(=O)[nH]c(=O)n2CC(C)C | active: 18.4 µM | 
CCOC(=O)C(CO)NC(=O)C1(NC(C)=O)CCCC1 (stereo unspecified) |  | inactive: -0.0355%
CCOC(=O)N1CCN(C/C(Cl)=C/c2ccccc2)CC1 | inconclusive [activator, single point] | 
Cc1ccccc1OCC(=O)N/N=C/c1ccc([N+](=O)[O-])o1 | active: 23.1 µM | 
CCCc1nc2ccccc2c(=O)n1/N=C/c1ccccc1O | inconclusive [activator, single point] | 
COc1ccc2cc1Oc1ccc(cc1)C[C@H]1c3c(cc4c(c3Oc3cc5c(cc3OC)CCN(C)[C@@H]5C2)OCO4)CCN1C | inconclusive [activator, single point] | 
Cc1ccc(S(=O)(=O)NCC(=O)OCN2C(=O)c3ccccc3C2=O)cc1 | inconclusive [activator, single point] | 
N#Cc1nc(-c2ccco2)oc1N1CCc2ccccc2C1 | inconclusive [activator, single point] | 
O=C(N/N=C/c1cc(Cl)cc(Cl)c1O)c1ccncc1 | inconclusive [activator, partial curve, poor fit] | 
COc1ccc(Nc2nnc(SCC3CCCCO3)s2)cc1 (stereo unspecified) | inconclusive [activator, partial curve, poor fit] | 
Cc1cc(C(N)=O)c2ccccc2n1 | inconclusive [activator, partial curve, poor fit] | 
CC[C@@]12C(=O)N(c3cccc(Br)c3)C(=O)N1[C@H](c1ccc(OC)cc1)[C@@H]1C(=O)N(C(C)(C)C)C(=O)[C@@H]12 | inconclusive [activator, full curve, poor fit] | 
Cc1ccc2cc(CN(CCN3CCCC3)C(=O)Nc3ccc(F)cc3)c(=O)[nH]c2c1C |  | inactive: 24%
Cc1ccc2cc(/C=C/C(=O)c3ccco3)c(Cl)nc2c1 | active: 8.2 µM | 
CSc1cccc(NC(=O)COc2cccc3ccccc23)c1 | inconclusive [activator, single point] | 
COc1ccccc1C=CC(=O)C=Cc1ccccc1OC | active: 3.26 µM | 

Compound | Potency | activity, positive = re-replication
O=C(CCc1nc2ccccc2c(=O)[nH]1)OCc1ccc(Cl)cc1Cl | inconclusive [activator, partial curve, poor fit] | 
COCCNC(=S)N/N=C(\C)c1ccc(OC(F)F)cc1 |  | inactive: 3.97%
COc1ccc(N2C(=O)C3C4C=CC(C4)C3C2=O)c(OC)c1 (stereo unspecified) |  | inactive: -21.6%
COc1ccc2c(c1)C(=O)C(=O)N2CC1COc2ccccc2O1 (stereo unspecified) | inconclusive [activator, single point] | 
Cc1nc(Cl)sc1C(=O)NC(C)c1ccc(Cl)cc1 (stereo unspecified) |  | inactive: 14.6%
CCOC(=O)/C=C1/SCC(=O)N1CCOc1cccc(Br)c1 | inconclusive [activator, single point] | 
CCCn1c(SCC(=O)NC2CCCCC2)nnc1-c1ccco1 | inconclusive [activator, single point] | 
CN(C)CCNc1nc2sc3c(c2c(=O)n1-c1ccccc1)CCCCC3 | inconclusive [activator, partial curve, poor fit] | 
O=c1c2ccccc2c(=O)n(Cc2ccccc2)n1Cc1ccccc1 | inconclusive [activator, single point] | 
O=C(NC(=S)Nc1ccccc1)c1ccc(Br)o1 |  | inactive: 5.18%
CCCC[n+]1ccn(C2=C([O-])c3ccccc3C(=O)/C2=N\S(=O)(=O)c2ccccc2)c1 | inconclusive [activator, single point] | 
CCOC(=O)c1c(/N=C/N(C)C)sc(/C=N/Nc2ccccc2)c1-c1ccccc1Cl | active: 14.6 µM | 
CCOC(=O)c1c(C=O)c(C)n(Cc2ccccc2Cl)c1C | inconclusive [activator, single point] | 
CCn1c(SCc2ccccc2)nnc1C1CCCCC1 | inconclusive [activator, full curve, poor fit] | 
Cc1cc(C(=O)CSc2nnc(Nc3ccccc3F)s2)c(C)n1CC1CCCO1 (stereo unspecified) | inconclusive [activator, partial curve, poor fit] | 
COc1ccccc1C(=O)NCC(=O)OCC(=O)c1cccc2ccccc12 | inconclusive [activator, full curve, poor fit] | 
CC1C(=O)N(Cc2ccc(F)cc2)c2ccccc2N1C(=O)c1c(F)cccc1F (stereo unspecified) |  | inactive: -3.08%
CCC1CCCCN1C(=O)c1cc2c(=O)n3cccc(C)c3nc2s1 (stereo unspecified) | inconclusive [activator, single point] | 
COC(=O)[C@@H]1C[C@@]2(O)[C@@H](O)[C@@H](O)[C@@H](O)C[C@H]2N1CC1CCCCC1 | inconclusive [activator, full curve, poor fit] | 
O=C(/C=C/c1ccc(F)cc1)N1CCN(c2ccccn2)CC1 |  | inactive: 4.25%
COc1ccc2nc(-c3ccccc3)cc(C(=O)N3CCC3)c2c1 | inconclusive [activator, partial curve, poor fit] | 
CCOC(=O)c1ccc(N2C(=O)c3n[nH]c(-c4ccco4)c3C2c2cccc([N+](=O)[O-])c2)cc1 (stereo unspecified) | inconclusive [activator, partial curve, poor fit] | 

Compound | Potency | activity, positive = re-replication
CCN1CCN(c2cc(C)c3cc(NC(=O)Cc4ccc(OC)c(OC)c4)ccc3n2)CC1 |  | inactive: 10.9%
COc1cc(O)c(C(C)=O)c2c1C=CC(C)(C)O2 | inconclusive [activator, single point] | 
CCOC(=O)c1sc(CS(=O)(=O)c2ccc(Cl)cc2)nc1C | inconclusive [activator, full curve, poor fit] | 
Cc1cc(N(C)C)c(C#N)c(NCc2ccccc2)n1 |  | inactive: 9.77%
COc1ccc(CC(=O)Oc2ccccc2Cl)cc1S(=O)(=O)N1CCOCC1 |  | inactive: -16.9%
Cc1ccc(C(=O)OC(C(=O)Nc2ccc(Cl)cc2C(F)(F)F)c2ccccc2)cc1 (stereo unspecified) | inconclusive [activator, single point] | 
Cc1ccc2cccc(OCC(=O)NCCC3=CCCCC3)c2n1 | inconclusive [activator, single point] | 
OC(COc1ccc(Cl)cc1)CN1CCN(c2cccc(Cl)c2)CC1 (stereo unspecified) | inconclusive [activator, single point] | 
CCCCN1C=C(C(=O)OC)C(c2ccccc2Cl)C(C(=O)OC)=C1 | active: 7.31 µM | 
CCO[C@H]1OC(C(=O)N2CCCCCCC2)=C[C@@H](c2csc3ccccc23)[C@@H]1CCCO | inconclusive [activator, partial curve, poor fit] | 
Cc1ccc(C(c2ccc(C)o2)c2cccc([N+](=O)[O-])c2O)o1 | inconclusive [activator, partial curve, poor fit] | 
COc1ccc(S(=O)(=O)Cc2ccc(C(=O)NCc3ccccc3OC)o2)cc1 | inconclusive [activator, partial curve, poor fit] | 
O=C1CSC(=S)N1c1ccc(O)cc1 | active: 16.4 µM | 
COCCCN1C(=O)C(=O)/C(=C(/O)c2ccc(S(=O)(=O)N3CCOCC3)cc2)C1c1ccc(C)cc1 (stereo unspecified) | inconclusive [activator, single point] | 
O=C(NCc1ccccc1)C(c1ccc(Cl)cc1)N(C(=O)c1csnn1)C1CC1 (stereo unspecified) |  | inactive: 0.28%
Cc1cc(C)c(Cn2cnc(-c3ccc([N+](=O)[O-])cc3)c2)c(C)c1 | inconclusive [activator, single point] | 
Cc1cccc(C)c1NC(=O)CN(C)S(=O)(=O)c1ccc(-c2ccc(=O)[nH]n2)s1 | inconclusive [activator, partial curve, poor fit] | 
O=C(Nc1cc(Cl)ccc1Cl)N1CCCC1 | inconclusive [activator, single point] | 
O=C(CSc1nc2ccccc2[nH]1)Nc1ccc2c(c1)CCC2 | inconclusive [activator, partial curve, poor fit] | 
CCCC1=Nc2cc(C(=O)N3CCN(c4ccccn4)CC3)ccc2Sc2ccc(C)cc21 | inconclusive [activator, single point] | 
O=C(O)c1ccccc1Nc1cccc(OCc2ccc3ccccc3n2)c1 | inconclusive [activator, partial curve, poor fit] | 
CCSc1nnc(-c2cc3c(s2)-c2ccccc2CC3)o1 | inconclusive [activator, single point] | 
